Measured values from the supplement of paper PMC11880418.
This is one part of the list. The data scatter; read single values as rough.

Assays:
Assay in all cases: ALDHbr (CSC) cell proportion score relative to DMSO vehicle (ratio to DMSO); breast (SUM159) / gastric (MKN45) / pancreatic (PANC1) / colon cancer lines; ALDHbr cells have high ALDH activity and are rich in cancer stem cells (CSC); higher = more CSC (ALDHbr) cells remaining
Conditions in all cases: 10 µM; 72 h
MKN45 = test system: MKN45
PANC1 = test system: PANC1
SUM159 = test system: SUM159
T84 = test system: T84
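Also: High-content imaging of ALDEFLUOR-stained cells with Hoechst-labelled nuclei in 384-well plates, triplicate wells, scored as Z-score against 0.1% DMSO vehicle, negative meaning fewer ALDHbr cells.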

SMILES	ALDHbr (MKN45)	ALDHbr (PANC1)	ALDHbr (SUM159)	ALDHbr (T84)
COc1cc(-c2ccc(N=Nc3ccc4c(S(=O)(=O)O)cc(S(=O)(=O)O)c(N)c4c3O)c(OC)c2)ccc1N=Nc1ccc2c(S(=O)(=O)O)cc(S(=O)(=O)O)c(N)c2c1O [Chicago sky blue 6B]	1.02	0.736	0.798	0.848
CCOc1nc2cccc(C(=O)OCc3oc(=O)oc3C)c2n1Cc1ccc(-c2ccccc2-c2noc(=O)[nH]2)cc1 [Azilsartan kamedoxomil]	0.949	0.887	1.09	0.941
Nc1ccc(O)c(C(=O)O)c1 [Mesalamine]	1.24	0.941	0.805	0.836
CC[C@H](C)C(=O)O[C@H]1C[C@H](O)C=C2C=C[C@H](C)[C@H](CC[C@@H](O)C[C@@H](O)CC(=O)O)[C@H]21 [Pravastatin]	1.09	0.941	1	1.04
Cc1nc2n(c(=O)c1CCN1CCC(c3noc4cc(F)ccc34)CC1)CCCC2O (stereo unspecified) [Paliperidone]	0.948	0.864	1.11	0.955
CC(C(=O)O)c1ccc(N2Cc3ccccc3C2=O)cc1 (stereo unspecified) [Indoprofen]	0.99	0.879	1.18	1
O=c1[nH]c(=O)n(C2CCCO2)cc1F (stereo unspecified) [Tegafur]	0.762	0.969	0.927	0.625
Clc1ccc(Nc2nnc(Cc3ccncc3)c3ccccc23)cc1 [Vatalanib]	0.833	0.628	0.865	0.746
COC(=O)[C@H]1[C@H]2C[C@@H]3c4[nH]c5cc(OC)ccc5c4CCN3C[C@H]2C[C@@H](OC(=O)c2cc(OC)c(OC)c(OC)c2)[C@@H]1OC [Reserpine]	1.27	0.896	0.683	0.89
